For this test, the target named is T1, His-β-catenin (human, UniProt P35222 1-781).
T1 construct: β-catenin, human; the only β-catenin cDNA cloned by the authors is full-length human β-catenin; The bacterial expression vector of the His fusion is not described; source: Escherichia coli BL21, purified
T1 sequence (looked up): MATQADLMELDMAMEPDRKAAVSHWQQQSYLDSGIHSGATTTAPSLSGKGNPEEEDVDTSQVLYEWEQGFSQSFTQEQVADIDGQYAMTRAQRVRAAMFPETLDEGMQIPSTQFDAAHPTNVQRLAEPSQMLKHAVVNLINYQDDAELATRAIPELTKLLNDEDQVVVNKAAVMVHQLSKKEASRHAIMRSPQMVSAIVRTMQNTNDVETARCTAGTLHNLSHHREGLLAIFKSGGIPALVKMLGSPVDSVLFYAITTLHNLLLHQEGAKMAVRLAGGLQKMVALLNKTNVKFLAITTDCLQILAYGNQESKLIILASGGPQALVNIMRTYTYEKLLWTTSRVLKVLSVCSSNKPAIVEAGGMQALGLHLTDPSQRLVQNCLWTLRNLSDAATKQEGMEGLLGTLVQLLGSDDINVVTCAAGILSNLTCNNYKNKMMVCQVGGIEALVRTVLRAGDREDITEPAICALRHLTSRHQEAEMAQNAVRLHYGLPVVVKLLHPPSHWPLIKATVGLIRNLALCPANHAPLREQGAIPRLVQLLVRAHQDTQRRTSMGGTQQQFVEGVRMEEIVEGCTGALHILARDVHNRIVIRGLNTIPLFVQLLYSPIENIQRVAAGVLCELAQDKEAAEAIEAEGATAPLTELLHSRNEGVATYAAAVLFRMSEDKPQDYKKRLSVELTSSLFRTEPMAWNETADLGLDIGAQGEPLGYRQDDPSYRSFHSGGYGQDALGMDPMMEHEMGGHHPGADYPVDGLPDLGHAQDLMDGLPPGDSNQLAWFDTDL
As to the kind of experiment: pull-down; GST pull-down: purified proteins incubated in 20 mM Tris pH 8.0, 150 mM NaCl, 0.5% NP-40, 5 mM EGTA, 1.5 mM EDTA at 4 °C for 4 h, then glutathione-agarose beads for 2 h; western blotting. Particulars: both partners purified. On the technique in general: Immunoblotting shows a protein as a band on a membrane.

B1: GST-Twa1 (natural protein)
chain: not shown
notes: Twa1 (Gid8), human, wild type; the only Twa1 cDNA described is full-length human Twa1; The bacterial expression vector of the GST fusion is not described; also called Gid8; wild-type GST-Twa1; source: Escherichia coli BL21, purified
B1: the binding result is on record as “binds”.

The values are drawn from paper PMC5717399, “Twa1/Gid8 is a β-catenin nuclear retention factor in Wnt signaling and colorectal tumorigenesis” (Cell Research, 2017).
